Assay results from article PMC4336329 (PLoS ONE, 2015).
Among all 310,000 compounds or so, about 2,200 (0.71%) showed an effect of 50% or more. Effects have a minus sign here. The list shows a part of the results.

The compounds below were run against human ether-à-go-go-related gene (hERG) potassium channel (human, UniProt Q12809) (assay: primary screen, population patch clamp on CHO cells stably expressing hERG).
Chain of human ether-à-go-go-related gene (hERG) potassium channel (Q12809 whole entry, looked up): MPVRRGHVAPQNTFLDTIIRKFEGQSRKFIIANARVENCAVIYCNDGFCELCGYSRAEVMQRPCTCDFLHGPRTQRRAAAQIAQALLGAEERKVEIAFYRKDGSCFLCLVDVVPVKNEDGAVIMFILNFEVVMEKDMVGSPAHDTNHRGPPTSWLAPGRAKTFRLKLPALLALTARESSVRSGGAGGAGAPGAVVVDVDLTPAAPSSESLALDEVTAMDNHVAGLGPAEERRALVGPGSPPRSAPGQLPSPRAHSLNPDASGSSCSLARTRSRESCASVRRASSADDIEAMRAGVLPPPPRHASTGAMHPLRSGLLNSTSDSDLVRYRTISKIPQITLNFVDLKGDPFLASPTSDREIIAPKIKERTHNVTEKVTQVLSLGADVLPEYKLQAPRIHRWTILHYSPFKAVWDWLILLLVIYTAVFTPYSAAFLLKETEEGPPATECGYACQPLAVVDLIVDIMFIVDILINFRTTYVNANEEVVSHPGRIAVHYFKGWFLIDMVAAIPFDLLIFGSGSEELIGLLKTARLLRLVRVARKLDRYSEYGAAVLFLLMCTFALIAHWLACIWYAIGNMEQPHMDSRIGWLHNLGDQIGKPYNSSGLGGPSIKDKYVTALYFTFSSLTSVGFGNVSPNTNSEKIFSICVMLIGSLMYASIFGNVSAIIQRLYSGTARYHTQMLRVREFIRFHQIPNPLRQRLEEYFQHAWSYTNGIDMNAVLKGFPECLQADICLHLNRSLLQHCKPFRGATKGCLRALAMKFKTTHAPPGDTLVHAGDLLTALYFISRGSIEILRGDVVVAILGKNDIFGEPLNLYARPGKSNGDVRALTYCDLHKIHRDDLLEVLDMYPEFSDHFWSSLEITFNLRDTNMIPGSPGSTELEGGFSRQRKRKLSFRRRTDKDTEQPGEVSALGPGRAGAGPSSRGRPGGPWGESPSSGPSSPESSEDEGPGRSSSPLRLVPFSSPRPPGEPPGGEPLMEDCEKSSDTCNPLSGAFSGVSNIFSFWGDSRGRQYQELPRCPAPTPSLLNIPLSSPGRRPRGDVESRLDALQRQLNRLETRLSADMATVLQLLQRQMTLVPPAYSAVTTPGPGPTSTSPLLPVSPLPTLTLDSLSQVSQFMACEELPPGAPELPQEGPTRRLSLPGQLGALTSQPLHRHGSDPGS

| SMILES | hERG current change (%, negative = inhibition) at 1uM [%] |
| --- | --- |
| Cc1ccc(-c2nc(-c3ccncc3)no2)cc1 | 13.9 |
| O=[N+]([O-])c1cc(Br)c2nsnc2c1N1CCOCC1 | 12.7 |
| CN(C)CCCN1C(=O)C(=O)/C(=C(/O)c2ccncc2)C1c1ccccc1 (stereo not shown) | 10.8 |
| Cc1ccc(CNC(=O)[C@H](C)[C@H]2C[C@]2(C)[C@H](NC(=O)OCc2ccccc2)c2ccccc2)o1 | 15.6 |
| Cc1cc2c(cc1S(=O)(=O)N1CCN(c3cccc(C)c3C)CC1)OCC(=O)N2 | 7.13 |
| Cc1nc2cc(CC(=O)O)ccc2o1 | 4.81 |
| N/C(=N\N=C\c1cccc([N+](=O)[O-])c1)c1nonc1N | 6.89 |
| COC(=O)C(C)Sc1nc2c(c(=O)[nH]c(=O)n2C)n1CCC(C)C (stereo not shown) | 4.51 |
| Cc1ccc(CCCOC(=O)C[N+]2(C)CCCC2)cc1.[I-] | 12.2 |
| CCS(=O)(=O)CCSC(=N)N.Cl | -35.5 |
| COc1cccc(NC(=O)C(NCCC(C)C)c2ccccc2)c1 (stereo not shown) | 16.6 |
| CC(C)c1nc(N2CCOCC2)c(C#N)c2c1COC(C)(C)C2 | 10.7 |
| COc1ccccc1CNC(=O)COC(=O)c1cccc(S(=O)(=O)N2CCCCC2)c1 | 9.24 |
| Cc1ccccc1NS(=O)(=O)c1ccc2c3c(cccc13)C(=O)N2C | -0.791 |
| COC(=O)c1[nH]c2ccc(F)cc2c1NS(=O)(=O)c1ccc(OC)cc1 | 6.54 |
| Cl.c1cncc(CNc2ncnc3sc4c(c23)CCC4)c1 | -2.84 |
| CC(C)CNC(=O)c1cc(-c2ccc3c(c2)OCO3)on1 | 13.6 |
| COc1ccc(C(=O)N2CCC3(CC2)OCCO3)cc1 | 18.4 |
| CCOC(=O)Nc1ccc2c(c1)N(C(=O)CN1CCN(C)CC1)c1ccccc1S2.Cl | -37.7 |
| CC1CN(c2ccc([N+](=O)[O-])c(NCCOc3ccccc3)c2)CC(C)N1 (stereo not shown) | 6.97 |
| CCC(C)(C(=O)NC1CCCC1)N(CC1CCCO1)C(=O)c1ccc2c(c1)OCO2 (stereo not shown) | 1.3 |
| CCCOC(=O)c1ccc(NC(=O)C2CCCO2)cc1 (stereo not shown) | 11.2 |
| COC(=O)[C@@]1(Cc2ccc(OC)cc2)[C@H]2c3cc(C(=O)N(C)C)n(Cc4ccc(OC(F)(F)F)cc4)c3C[C@H]2CN1C(=O)c1ccccc1 | 8.08 |

| SMILES | hERG current change (%, negative = inhibition) at 1uM [%] |
| --- | --- |
| COCc1cc(OC)nc(-c2csc(C)n2)n1 | 15.9 |
| CSc1ccccc1NC(=O)CN(C)CC(=O)Nc1ccccc1C(F)(F)F | 5.44 |
| FC(F)(F)c1ccccc1NC(=S)Nn1cnnc1 | 9.83 |
| CCC(C)(C)n1nnnc1C(c1ccc(C)cc1)N1CCN(Cc2ccc3c(c2)OCO3)CC1 (stereo not shown) | 3.3 |
| Cc1ccc(-c2ocnc2C(=O)Nc2ccccc2C(=O)N2CCCC2)cc1 | -0.065 |
| O=c1c(Br)c(N2CCCCC2)cnn1-c1ccccc1 | 7.77 |
| CCC(=O)Nc1ccc(C(=O)COC(=O)CCN2C(=O)C3CC=CCC3C2=O)cc1 (stereo not shown) | 15.3 |
| O=C(NCC1CCCN1S(=O)(=O)c1cccs1)c1ccc(F)c(F)c1 (stereo not shown) | 8.45 |
| CCNC(=O)C(=O)Nc1ccc(OC)c(Cl)c1 | 7.31 |
| CCOc1ccc(-n2ccnc2SCC(=O)Nc2cc(C)on2)cc1 | 1.88 |
| Cc1ccc(-n2ncc3c2CC(C)(C)CC3NC(=O)CCc2c(C)noc2C)cc1 (stereo not shown) | -11 |
| Cc1cc(C(=O)N/N=C/c2ccc(-c3cccc(Cl)c3)o2)n[nH]1 | 17.6 |
| COc1ccc2sc(-c3ccc(N(C)C)cc3)c(C#CC(C)(C)O)c2c1 | 10.4 |
| COc1ccc(S(=O)(=O)NCC2CCCN(C(=O)c3ccco3)C2)cc1 (stereo not shown) | 14.1 |
| Cc1ccc(C2OCC3(CO2)COC(c2ccc(C)cc2)OC3)cc1 (stereo not shown) | 6.71 |
| CCC(C)NCCOCCOc1cc(C)c(Cl)c(C)c1.O=C(O)C(=O)O (stereo not shown) | -1.43 |
| Cn1c(=O)oc2cc(S(=O)(=O)N3CCN(c4ccccc4)CC3)ccc21 | 6.21 |
| CN(C)CCCNc1nc(N)c([N+](=O)[O-])c(NCc2ccccc2)n1 | 5.97 |
| O=c1[nH]c2c(c(=O)[nH]1)CCC2 | 3.5 |
| O=C1CSC(c2cccc(O)c2)N1Cc1ccccc1 (stereo not shown) | 14.3 |
| CN(C)c1cccc(C(=O)NNC(=O)/C=C/c2cccs2)c1 | 15.1 |
| Cc1cccc(N2CCN(S(=O)(=O)c3c(C)[nH]c(=O)[nH]c3=O)CC2)c1C | 34 |
| O=C(CN(Cc1ccccc1Cl)C(=O)CCC(=O)Nc1nccs1)NCC1CCCO1 (stereo not shown) | 17.1 |

| SMILES | hERG current change (%, negative = inhibition) at 1uM [%] |
| --- | --- |
| CCCOc1ccc(C2CC(=O)NC2=O)cc1 (stereo not shown) | 10.2 |
| O=C(Cc1ccc(Cl)cc1)N/N=C/c1c(Cl)cccc1Cl | 6.71 |
| Cc1ccc(C)c(OCCC(=O)OCC(=O)Nc2cccc(S(=O)(=O)N3CCCC3)c2)c1 | 12 |
| COc1ccc(-n2ncc(C(C)NS(=O)(=O)c3cccs3)c2C)cc1 (stereo not shown) | 15.1 |
| CC(C)CNC(=O)CC(c1ccccc1)c1c(O)ccc2ccccc12 (stereo not shown) | 10.6 |
| CC(=O)c1sc(NS(=O)(=O)c2ccc(C)cc2)nc1C | 15.5 |
| CN1CCN(/N=C/c2ccc(-c3ccccc3)cc2)CC1 | 3.85 |
| CC(C)OC(=O)c1ccc(N2CCN(c3ccccc3F)CC2)nc1 | 13.6 |
| CC(=O)N(c1nc(CCl)cs1)c1ccc(C)cc1C | 11 |
| CC(C)(C)c1cc(C(=O)NCc2ccco2)ccn1 | 21.2 |
| CC(C)(C)OC(=O)NC(=NCCCc1cn(CC(=O)N2CCN(C(=O)OC(C)(C)C)CC2)nn1)NC(=O)OC(C)(C)C | 13.1 |
| O=C(O)C(=O)O.OCCNCCSc1ccc(Cl)cc1 | -6.24 |
| CCOC(=O)Cn1nnnc1C(C(C)C)N(Cc1cc2c(C)cc(C)cc2[nH]c1=O)C1CCCC1 (stereo not shown) | 20.9 |
| CCOc1ccccc1NC(=O)CSc1nnc(CNC(=O)c2cc(OC)c(OC)c(OC)c2)o1 | 6.13 |
| CC1(C(=O)NCCN2CCOCC2)C=CCN1C(=O)c1ccccc1 (stereo not shown) | 8.32 |
| O=C(N/N=C/c1ccco1)c1cccc(NC(=O)c2cccc(Cl)c2)c1 | -5.21 |
| O=C(NCc1ccccc1)C1CCCN1C(=O)Nc1ccccc1[N+](=O)[O-] (stereo not shown) | 12.5 |
| Cc1c(C(=O)NCCSCc2ccccc2Cl)cccc1[N+](=O)[O-] | -10.7 |
| COc1ccc(S(=O)NC2CCCCC2)c(OC)c1C (stereo not shown) | 3.85 |
| CNCCOc1ccccc1C(C)(C)C.O=C(O)C(=O)O | 10.3 |
| CCN1CCN(Cc2cc(Br)ccc2O)CC1 | 6.15 |
| COc1cc(C)nn1-c1ccc(Cl)cc1 | 4.07 |
| COc1ccc(S(=O)(=O)NCc2cccnc2)cc1C(=O)NC1CCCCC1 | 12.7 |

| SMILES | hERG current change (%, negative = inhibition) at 1uM [%] |
| --- | --- |
| Cc1ccc(S(=O)(=O)NC(=O)c2cc(C)n(-c3ccccc3)c2C)cc1 | 8.61 |
| CCc1cccc(NC(=O)c2cccc3c2C(=O)N(CC2CCCO2)C3)c1 (stereo not shown) | -18.3 |
| C/C(=N\NC(=S)NC(C)C)c1ccc(C(C)(C)C)cc1 | 6.21 |
| COc1cccc(Cn2c(-c3cccs3)noc2=O)c1 | -8.06 |
| COc1ccccc1NC(=O)c1cc(=O)[nH]c2ccccc12 | 17.9 |
| CCn1c(SCC(N)=O)nc2sc3c(c2c1=O)CCCC3 | 8.5 |
| O=C(O)c1ccnc(Cl)c1 | 4.18 |
| Cl.O=C(O)CSc1nc(-c2ccccc2)c(-c2ccccc2)[nH]1 | 9.63 |
| Cc1cc(Sc2nc(NC(C)(C)C)nc(N3CCOCC3)n2)nc(Cl)n1 | 13.9 |
| COc1ccc(OC)c(NC(=O)c2ccccc2SC)c1 | -10.2 |
| COC(=O)c1ccccc1SC1CC(=O)N(c2ccccc2)C1=O (stereo not shown) | 6.24 |
| CC(=O)c1c(C)[nH]c(C(=O)N2c3ccccc3CC2C)c1C (stereo not shown) | 13.1 |
| O=C1C=C(c2ccc3[nH]ccc3c2)CCC1 | 17.4 |
| Nc1c(Nc2ccccc2)c2ccccc2oc1=O | 7.71 |
| CCn1cc([N+](=O)[O-])c(C(=O)N2N=C(c3ccc(Cl)c(Cl)c3)CC2c2ccccc2O)n1 (stereo not shown) | 0.0756 |
| CCCSc1nc(C)c(CC(=O)O)c(=O)[nH]1 | 12.6 |
| O=C(CSc1nc2cccnc2n1Cc1ccccc1)N1CCCC1 | -48.8 |
| CCCC(=O)Nc1sc(C)c(-c2ccc(C(C)CC)cc2)c1C#N (stereo not shown) | 14.2 |
| CCOC(=O)N1CCN(C(=O)CSc2nc3c(cnn3-c3ccccc3)c(=O)[nH]2)CC1 | 5.15 |
| Cc1ccc([N+](=O)[O-])c(-c2n[nH]c(=S)n2-c2cccc(Cl)c2)c1 | 18.1 |
| CN(C)/C=C/c1onc(-c2c(Cl)cccc2Cl)c1C#N | 9.06 |
| Cc1cc(NC(=O)C(C)SCC(=O)OCC(=O)N(C)c2ccccc2)no1 (stereo not shown) | 3.32 |
